B1: 1H3-hIgG1-L6-hIL-2 (D20A/E61N) (protein)
heavy: EVQLVESGGGLVQPGRSLKLSCAVSGFTFSDYAMAWVRQAPKKGLEWVATISYDGSRTYYRDSVKGRFTISRDNAKITLYLQMDSLRSEDTATYYCARHGSGYFDYWGQGVMVTVSS[not shown - about 450 residues with a human IgG1 Fc and changes]
light: DTVLTQSPALAVSPGERVTISCRASESVRTGVHWYQQKPGQQPKLLIYGASNLESGVPARFSGSGSGTDFTLTIDPVEADDTATYFCQQSWNDPFTFGSGTKLEIKRTVAAPSVFIFPPSDEQLKSGTASVVCLLNNFYPREAKVQWKVDNALQSGNSQESVTEQDSKDSTYSLSSTLTLSKADYEKHKVYACEVTHQGLSSPVTKSFNRGEC
B2: 1H3-hIgG1-L6-hIL-2 (D20A/E61D) (protein)
heavy: EVQLVESGGGLVQPGRSLKLSCAVSGFTFSDYAMAWVRQAPKKGLEWVATISYDGSRTYYRDSVKGRFTISRDNAKITLYLQMDSLRSEDTATYYCARHGSGYFDYWGQGVMVTVSS[not shown - about 450 residues with a human IgG1 Fc and changes]
light: B1 light
B3: 1H3-hIgG1-L6-hIL-2 (D20A/E61Q) (protein)
heavy: EVQLVESGGGLVQPGRSLKLSCAVSGFTFSDYAMAWVRQAPKKGLEWVATISYDGSRTYYRDSVKGRFTISRDNAKITLYLQMDSLRSEDTATYYCARHGSGYFDYWGQGVMVTVSS[not shown - about 450 residues with a human IgG1 Fc and changes]
light: B1 light
B4: 1H3-hIgG1-L6-hIL-2 (D20A/E61G) (protein)
heavy: EVQLVESGGGLVQPGRSLKLSCAVSGFTFSDYAMAWVRQAPKKGLEWVATISYDGSRTYYRDSVKGRFTISRDNAKITLYLQMDSLRSEDTATYYCARHGSGYFDYWGQGVMVTVSS[not shown - about 450 residues with a human IgG1 Fc and changes]
light: B1 light
B5: 1H3-hIgG1-L6-hIL-2 (D20A/E61H) (protein)
heavy: EVQLVESGGGLVQPGRSLKLSCAVSGFTFSDYAMAWVRQAPKKGLEWVATISYDGSRTYYRDSVKGRFTISRDNAKITLYLQMDSLRSEDTATYYCARHGSGYFDYWGQGVMVTVSS[not shown - about 450 residues with a human IgG1 Fc and changes]
light: B1 light
B6: 1H3-hIgG1-L6-hIL-2 (D20A/E61I) (protein)
heavy: EVQLVESGGGLVQPGRSLKLSCAVSGFTFSDYAMAWVRQAPKKGLEWVATISYDGSRTYYRDSVKGRFTISRDNAKITLYLQMDSLRSEDTATYYCARHGSGYFDYWGQGVMVTVSS[not shown - about 450 residues with a human IgG1 Fc and changes]
light: B1 light
B7: 1H3-hIgG1-L6-hIL-2 (D20A/E61L) (protein)
heavy: EVQLVESGGGLVQPGRSLKLSCAVSGFTFSDYAMAWVRQAPKKGLEWVATISYDGSRTYYRDSVKGRFTISRDNAKITLYLQMDSLRSEDTATYYCARHGSGYFDYWGQGVMVTVSS[not shown - about 450 residues with a human IgG1 Fc and changes]
light: B1 light
B8: 1H3-hIgG1-L6-hIL-2 (D20A/E61K) (protein)
heavy: EVQLVESGGGLVQPGRSLKLSCAVSGFTFSDYAMAWVRQAPKKGLEWVATISYDGSRTYYRDSVKGRFTISRDNAKITLYLQMDSLRSEDTATYYCARHGSGYFDYWGQGVMVTVSS[not shown - about 450 residues with a human IgG1 Fc and changes]
light: B1 light
B9: 1H3-hIgG1-L6-hIL-2 (D20A/E61M) (protein)
heavy: EVQLVESGGGLVQPGRSLKLSCAVSGFTFSDYAMAWVRQAPKKGLEWVATISYDGSRTYYRDSVKGRFTISRDNAKITLYLQMDSLRSEDTATYYCARHGSGYFDYWGQGVMVTVSS[not shown - about 450 residues with a human IgG1 Fc and changes]
light: B1 light
B10: 1H3-hIgG1-L6-hIL-2 (D20A/E61F) (protein)
heavy: EVQLVESGGGLVQPGRSLKLSCAVSGFTFSDYAMAWVRQAPKKGLEWVATISYDGSRTYYRDSVKGRFTISRDNAKITLYLQMDSLRSEDTATYYCARHGSGYFDYWGQGVMVTVSS[not shown - about 450 residues with a human IgG1 Fc and changes]
light: B1 light
B11: 1H3-hIgG1-L6-hIL-2 (D20A/E61P) (protein)
heavy: EVQLVESGGGLVQPGRSLKLSCAVSGFTFSDYAMAWVRQAPKKGLEWVATISYDGSRTYYRDSVKGRFTISRDNAKITLYLQMDSLRSEDTATYYCARHGSGYFDYWGQGVMVTVSS[not shown - about 450 residues with a human IgG1 Fc and changes]
light: B1 light
B12: 1H3-hIgG1-L6-hIL-2 (D20A/E61S) (protein)
heavy: EVQLVESGGGLVQPGRSLKLSCAVSGFTFSDYAMAWVRQAPKKGLEWVATISYDGSRTYYRDSVKGRFTISRDNAKITLYLQMDSLRSEDTATYYCARHGSGYFDYWGQGVMVTVSS[not shown - about 450 residues with a human IgG1 Fc and changes]
light: B1 light
B13: 1H3-hIgG1-L6-hIL-2 (D20A/E61T) (protein)
heavy: EVQLVESGGGLVQPGRSLKLSCAVSGFTFSDYAMAWVRQAPKKGLEWVATISYDGSRTYYRDSVKGRFTISRDNAKITLYLQMDSLRSEDTATYYCARHGSGYFDYWGQGVMVTVSS[not shown - about 450 residues with a human IgG1 Fc and changes]
light: B1 light
B14: 1H3-hIgG1-L6-hIL-2 (D20A/E61W) (protein)
heavy: EVQLVESGGGLVQPGRSLKLSCAVSGFTFSDYAMAWVRQAPKKGLEWVATISYDGSRTYYRDSVKGRFTISRDNAKITLYLQMDSLRSEDTATYYCARHGSGYFDYWGQGVMVTVSS[not shown - about 450 residues with a human IgG1 Fc and changes]
light: B1 light
B15: 1H3-hIgG1-L6-hIL-2 (D20A/E61Y) (protein)
heavy: EVQLVESGGGLVQPGRSLKLSCAVSGFTFSDYAMAWVRQAPKKGLEWVATISYDGSRTYYRDSVKGRFTISRDNAKITLYLQMDSLRSEDTATYYCARHGSGYFDYWGQGVMVTVSS[not shown - about 450 residues with a human IgG1 Fc and changes]
light: B1 light
B16: 1H3-hIgG1-L6-hIL-2 (D20A/E61V) (protein)
heavy: EVQLVESGGGLVQPGRSLKLSCAVSGFTFSDYAMAWVRQAPKKGLEWVATISYDGSRTYYRDSVKGRFTISRDNAKITLYLQMDSLRSEDTATYYCARHGSGYFDYWGQGVMVTVSS[not shown - about 450 residues with a human IgG1 Fc and changes]
light: B1 light
B17: 1H3-hIgG1-L6-hIL-2 (D20A/F42E) (protein)
heavy: EVQLVESGGGLVQPGRSLKLSCAVSGFTFSDYAMAWVRQAPKKGLEWVATISYDGSRTYYRDSVKGRFTISRDNAKITLYLQMDSLRSEDTATYYCARHGSGYFDYWGQGVMVTVSS[not shown - about 450 residues with a human IgG1 Fc and changes]
light: B1 light

target: high-affinity hIL-2 receptor (IL-2Rαβγ) (human) (UniProt P01589); assay: cell-based or functional assay
UniProt P01589, sequence (P01589 22-272, chain 1 of 3): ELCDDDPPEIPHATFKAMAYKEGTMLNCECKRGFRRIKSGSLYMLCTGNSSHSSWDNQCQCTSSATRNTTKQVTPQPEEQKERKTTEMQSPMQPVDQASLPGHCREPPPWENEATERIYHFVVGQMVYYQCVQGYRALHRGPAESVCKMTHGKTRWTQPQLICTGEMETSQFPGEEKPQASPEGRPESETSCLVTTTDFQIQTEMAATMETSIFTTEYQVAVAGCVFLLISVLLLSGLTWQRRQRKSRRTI
UniProt P01589, sequence (chain, as listed by the source, chain 2 of 3): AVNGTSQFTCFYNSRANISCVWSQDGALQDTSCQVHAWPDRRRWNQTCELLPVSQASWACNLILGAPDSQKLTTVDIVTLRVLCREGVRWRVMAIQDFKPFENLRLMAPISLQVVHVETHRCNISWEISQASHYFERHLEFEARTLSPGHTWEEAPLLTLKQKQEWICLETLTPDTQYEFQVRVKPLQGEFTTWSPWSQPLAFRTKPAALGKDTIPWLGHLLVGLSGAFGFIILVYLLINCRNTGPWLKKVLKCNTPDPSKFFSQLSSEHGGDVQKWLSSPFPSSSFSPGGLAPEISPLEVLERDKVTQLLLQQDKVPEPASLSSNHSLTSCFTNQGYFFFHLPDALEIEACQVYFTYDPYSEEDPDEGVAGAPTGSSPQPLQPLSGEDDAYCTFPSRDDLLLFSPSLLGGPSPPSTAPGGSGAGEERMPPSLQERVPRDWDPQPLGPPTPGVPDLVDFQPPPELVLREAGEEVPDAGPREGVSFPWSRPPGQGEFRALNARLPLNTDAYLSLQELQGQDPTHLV
UniProt P01589, sequence (chain, as listed by the source, chain 3 of 3): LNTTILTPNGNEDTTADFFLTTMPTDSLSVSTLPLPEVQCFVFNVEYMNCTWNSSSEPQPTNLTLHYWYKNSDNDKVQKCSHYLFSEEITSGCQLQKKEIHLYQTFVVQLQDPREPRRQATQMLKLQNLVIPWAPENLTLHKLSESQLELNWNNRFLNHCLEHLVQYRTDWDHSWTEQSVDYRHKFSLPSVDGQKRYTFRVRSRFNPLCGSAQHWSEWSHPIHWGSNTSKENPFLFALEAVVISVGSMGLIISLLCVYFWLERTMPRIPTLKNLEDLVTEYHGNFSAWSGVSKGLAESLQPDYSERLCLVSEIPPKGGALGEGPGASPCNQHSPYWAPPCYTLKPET

Binder	Fold change from hIL-2 (NK-92), pSTAT5 fixed conc. [fold]
B1	15
B2	11
B3	16
B4	15
B5	15
B6	16
B7	16
B8	17
B9	15
B10	14
B11	15
B12	16
B13	16
B14	15
B15	15
B16	17
B17	16

target: intermediate affinity hIL-2 receptor complex (IL-2Rβγ) (human) (UniProt P14784); assay: cell-based or functional assay
UniProt P14784, sequence (P14784 27-551, chain 1 of 2): as the sequence (chain, as listed by the source, chain 2 of 3) above
UniProt P14784, sequence (chain, as listed by the source, chain 2 of 2): as the sequence (chain, as listed by the source, chain 3 of 3) above

Binder	Fold change from hIL-2 (TF1 + IL-2Rβ), pSTAT5 fixed conc. [fold]
B1	1
B2	0
B3	2
B4	2
B5	2
B6	1
B7	1
B8	2
B9	2
B10	0
B11	1
B12	1
B13	2
B14	2
B15	2
B16	3
B17	1

Source: US20240076343A1
